From ChEMBL document CHEMBL4888484, “Replenishing the malaria drug discovery pipeline: Screening and hit evaluation of the MMV Hit Generation Library 1 (HGL1) against asexual blood stage Plasmodium falciparum ,using a nano luciferase reporter read-out” (2022)
The campaign covered roughly 150,000 compounds. About 540 (0.36%) showed an effect of 50% or more. The list shows a part of the results.

Test system: Plasmodium falciparum
Assay: Primary screen in NF54 nanoGlo assay, in single point, at 2uM, 72h; a lower Z score goes with more inhibition
Type: functional, Erythrocyte
Details: timepoint 72 hour

Compound | % Inhibition [%] | Z score
CC(C)NC(=O)N[C@@H]1CC[C@H]2CCOc3ccccc3C(=O)N3CCN(C(=O)OC(C)(C)C)C[C@H]3C(=O)NC[C@H]1O2 | 0 | 0.04
O=C(CNC(=O)c1csc(Nc2ccccc2Cl)n1)NC[C@H]1CCCO1 | -1 | 0.28
COc1ccc2cc1Oc1cccc(c1)CO[C@H]1CCN(C(=O)c3cnc(N4CCN(C)CC4)nc3C)C[C@H]1NC(=O)CC2 | -5 | 0.64
CC(C)(C)OC(=O)NCCCC(=O)Nc1cc(F)c(F)cc1F | -11 | 2.16
Cc1sc(C)c(S(=O)(=O)Nc2ccccc2)c1-c1ccno1 | -12 | 2.06
O=C(CC1CCC(c2ccccc2)CC1)N1CCCS1(=O)=O (stereo unspecified) | -2 | 0.21
CCCC(=O)NCC(=O)N[C@@H](Cc1ccccc1)c1cccs1 | 0 | -0.06
Cc1nnnn1CCC(=O)N(C)CCC[C@H]1CCCO1 | -10 | 1.32
CC(C)NC(=NC1CCCCC1)NCc1cc2ccccc2o1 | 4 | -0.58
Cc1cccc(CN2CC[C@@]3(CCCN(Cc4cccc(F)c4F)C3)C2)n1 | -10 | 1.37
CN(C)CCN(CC1CCCO1)C(=O)C1CC1c1cccnc1 (stereo unspecified) | -9 | 1.17
Cc1ccc(C(=O)N2c3ccccc3C[C@H]2c2nc(C3CC3)no2)cn1 | -6 | 0.74
Cc1cc(O[C@H]2CCCN(C(=O)Cc3ccc4c(c3)OCO4)C2)nc(C)n1 | 0 | 0
O=C(NCc1nc(-c2ccco2)n[nH]1)Nc1ccccc1 | -6 | 1.12
COCc1nsc(NC(=O)Cn2nc(C)cc2C)n1 | -3 | 0.35
Cc1cc(C(=O)N2CCC[C@@H](Nc3ncc(F)cn3)C2)on1 | -6 | 0.77
Cc1cc(C)n(Cc2nc(-c3cc(N4CCN(C)CC4)ccn3)no2)n1 | -11 | 1.18
Cc1cccc(NC(=O)C(C)(C)C#N)c1C | 5 | -1
CNc1ccc(C)cc1CN[C@H]1CCO[C@@H]1c1ccc(OC)nc1 | 0 | 0.04
Cc1ccc(-c2c3c(=O)n(C)c(=O)n(C)c3c3c(-c4ccccc4)cc(C)nn23)cc1 | -11 | 1.44
CC(=O)N(C)c1ccc(-c2cccc(-c3ccn(C[C@H]4COCCO4)n3)c2)cc1 | -19 | 2.45

Compound | % Inhibition [%] | Z score
O=C(CNC1(CO)CCOCC1)N[C@H]1CCCc2ccccc21 | -4 | 0.61
Cc1ccc(-c2ccc3nn(Cc4cc(F)cc(F)c4)c(=O)n3n2)cc1C | -18 | 2.27
COCC1(C(=O)N2CCc3[nH]cnc3[C@H]2c2ccncc2)CCC1 | -6 | 0.55
COC1CC(C(=O)NCC2(C#N)CCCCC2)C1 (stereo unspecified) | -3 | 0.41
OC[C@H]1CCCN(CCNC2CCN(c3ccccc3Cl)CC2)C1 | 0 | 0.07
Cc1ccc(CN(CCO)C(=O)c2cc(F)ccc2OCCN)s1 | 13 | -1.78
Clc1cccc(OC2CN(Cc3cc(C4CC4)n[nH]3)C2)c1 | -2 | 0.27
COCCOCCS(=O)(=O)Nc1cccc(CO)c1Cl | 1 | -0.25
COc1cc2c(cc1OC)/C(=N/c1ccc(Br)cc1)NC1(CCCC1)C2 | -2 | 0.25
c1cn2c(CNc3ccc4[nH]ncc4c3)cnc2cn1 | -12 | 1.33
CNC(=O)c1ccc(N[C@H]2CCCc3cc(OC(F)F)ccc32)nn1 | -10 | 1.1
CCNC(=O)CNC(=O)N[C@@H](CC)c1ccccc1Br | -6 | 0.57
C[C@]1(C(=O)O)CCN(C(=O)Cc2cccs2)C1 | -14 | 1.99
O=C(NC1CCCCCC1)[C@@H]1CCN(c2ccccc2)C1=O | -11 | 1.1
CCC(CC)CN(CC)C(=O)C(C)(C)S(=O)(=O)C1CC1 | -25 | 2.95
O=C(NC1CC1)C1CCCN(CC(O)c2cc(F)ccc2F)C1 (stereo unspecified) | 7 | -1.02
CC(C)C(=O)N1CCC(CCOCc2cccc(F)c2)CC1 | -12 | 2.25
CCOC(=O)N1CCc2c(sc(NC(=O)c3cc(C)n(CC)n3)c2C(N)=O)C1 | -1 | 0.2
COc1ccc(Cl)cc1C(=O)N1CC(n2nccn2)C1 | -6 | 1.09
CS(=O)(=O)c1ccccc1C(=O)N1CCC([C@H]2CCOC2)CC1 | -16 | 2.11
Cc1ccc(-c2c(C)n(C)c(=O)n(C)c2=O)o1 | -16 | 2.08

Compound | % Inhibition [%] | Z score
O=C(c1ccncc1Cl)N1CCC2(CCCCC2)C1 | 3 | -0.34
O=C(c1n[nH]c2ccccc12)N1CCC(COc2ccccn2)CC1 | 2 | -0.34
C#CCOCC(O)CN(Cc1cccc(C)c1)C(C)CC (stereo unspecified) | -8 | 1.46
COc1nccc(NCc2cccnc2Oc2ccc(F)cc2F)c1C#N | -7 | 0.78
CC(=O)c1cccc(NC(=O)C2CCN(c3cc(C4CC4)ncn3)CC2)c1 | 1 | -0.21
COc1ccc(NS(=O)(=O)c2ccc(N3CCCC3)c(NS(=O)(=O)c3ccc(Cl)cc3)c2)cc1 | -11 | 1.76
Cc1ccc(C(=O)Nc2ccc3c(c2)cc(C(=O)Nc2ccccc2)n3Cc2cccc(F)c2)cc1 | 1 | -0.13
CCNC(=O)c1ccc(N(C)C[C@H](C)O)nc1 | -7 | 1.38
CC[C@H](NCCN1C(=O)CNC1=O)c1cccc(Cl)c1F | -21 | 2.7
COc1ccc(Cc2noc([C@@H]3CN(C(C)=O)CCO3)n2)c(F)c1 | -2 | 0.28
Cc1c(Cl)cccc1S(=O)(=O)N1CC2(COC(C)(C)OC2)C1 | -10 | 1.49
FC(F)(F)c1cnccc1N1CC[C@H](c2cnccn2)C1 | -13 | 1.64
COCCNC(=O)c1ccc(Nc2c(Oc3ccc4c(c3)OCO4)cnn(-c3ccccc3)c2=O)cc1 | -17 | 1.68
CCn1nc(C(=O)NCc2ccncc2)c2c1CC[C@H](NC1Cc3ccccc3C1)C2 | -9 | 0.99
O=c1c2ccnn2ccn1CC1CCOCC1 | 1 | -0.23
CC1COCCC1CNC(=O)NC(C)C1CCC(F)(F)CC1 (stereo unspecified) | -6 | 0.79
CCOc1ccc(C(=O)N/C(=N/c2ccc3c(c2)OCCO3)NCCN2CCOCC2)cc1 | -22 | 2.03
CC1CCN(C(=O)c2cnn3ccc(C4CCN(C(=O)Nc5cccc(F)c5)CC4)cc23)CC1 | -11 | 1.26
Cc1nn(C)c(C)c1CCN(C)C(=O)[C@H]1CCC[C@H]1NC(=O)c1ccncc1 | -8 | 1.09
Cc1ccc(-n2cnc3c2CCN(C(=O)C(=O)Nc2c4c(nn2C)CCCC4)C3)cc1 | -13 | 1.99
O=C1COc2ccc(S(=O)(=O)N3CCC(C(=O)N[C@H]4CCCc5ccccc54)CC3)cc2N1 | -6 | 1.24

Compound | % Inhibition [%] | Z score
Cc1cnc(CN2CCN(Cc3ncc(C)o3)[C@H](C(=O)N(C)C)C2)o1 | 8 | -0.83
Cn1ccnc1C(=O)[C@H](C#N)c1ccccn1 | -10 | 1.64
Cn1nccc1S(=O)(=O)N1CC(=O)Nc2c(F)cccc21 | 0 | 0.04
C[C@@H](Cn1cnnc1)NC(=O)c1ccn(CCc2ccccc2)n1 | 2 | -0.24
O=C(c1ccccn1)[C@H]1CCCN(C(=O)NCCc2noc(C3CC3)n2)C1 | -13 | 2.43
COC1CCC(NC(=O)Nc2cc(F)ccc2OC(F)F)C1 (stereo unspecified) | -16 | 1.65
COc1cc(C(F)(F)F)ccc1C(=O)Nc1cccc(/C=C/c2ccncc2)c1 | 19 | -2.39
CC(Cn1cccn1)NC(=O)N1CCCC1c1cccs1 (stereo unspecified) | -7 | 1.39
Cc1ccc(-c2noc(C3CC3)n2)cc1S(=O)(=O)NCC(=O)N1CCCC1 | -5 | 0.54
COc1ccc(NC(=O)N[C@@H]2C=C[C@@H](c3c(C)nn(-c4ccc(C(C)C)cc4)c3C)C2)cc1 | -3 | 0.41
O=C(c1n[nH]c(=O)c2ccccc12)N1CCC[C@H](c2nc3ccccc3s2)C1 | 22 | -2.6
O=C(CN1CCCC1Cn1cncn1)N1CCOC2CCCCC21 (stereo unspecified) | -5 | 0.47
CCCC(=O)N1CCC(C(=O)N2CCCC2)CC1 | -16 | 2.23
O=S(=O)(Cc1ccn[nH]1)c1ccc(C2CCCCC2)cc1 | -4 | 0.53
CC1CCN(C[C@H](O)CN2CCCc3ccccc3C2)CC1 | -1 | 0.19
c1ccc(-c2nn(-c3ccccc3)c(-c3ccccc3)c3cccc2-3)cc1 | -35 | 4.11
Cn1ccnc1-c1cn([C@H]2CCCCNC2=O)nn1 | 0 | -0.06
Cc1ccc(CNC(=O)[C@]2(C)CN(S(C)(=O)=O)CC(=O)N2c2cc(Cl)ccc2C)cc1 | -3 | 0.57
Cc1oc2c(c1C(=O)N1C[C@H](C(=O)O)[C@@H](c3ccc(F)cc3)C1)C(=O)CCC2 | 1 | -0.22
NC(=O)[C@@H]1C[C@@H](O)CN1C(=O)CC1CC2CCC1C2 (stereo partly specified) | -16 | 1.82
